± gives the standard deviation of the averaged measurements. The list shows a part of the results.

For this assay, the system named is PfAP2-LT AP2 domain (GST-tagged). As to the kind of experiment: gcPBM binding intensity (ln(normalized median fluorescence intensity)); higher = stronger DNA binding. In short, it runs like this:
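Binding intensity is the highest Masliner-normalised natural-log median intensity over replicate spots in either probe orientation. To obtain it, GST-tagged P. falciparum DNA-binding domains made in E. coli were incubated for 1 h on an Agilent 4 × 180k array of primer-extended double-stranded 36-bp intergenic genomic probes plus negative controls. Detection used Alexa488 anti-GST antibody with scanning at 488 nm.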
As for TATAAATTAAAATCAGTGCATATTTTGAAAAACCTC, the “gcPBM binding intensity (ln)” value came out at 8.62 ± 0.47.

Regarding “TGAAATAACCCATGTGCATGCACTTCAATAACTGAA [TGCATGCA_site1041]”, the “gcPBM binding intensity (ln)” value turned out to be 8.97 ± 0.47.

As to “ATATTATTATTAGTTTCACACATTTAATGAAACTAA [CACACA_site5677]”, the “gcPBM binding intensity (ln)” value worked out at 8.56 ± 0.38.

For “TATAAATTATAAATTGCACACATATTTTTATATTTA [CACACA_site8974]”, the “gcPBM binding intensity (ln)” value was found to be 8.78 ± 0.39.

For the sequence “TTACATGTAAAAGGTACACACATTAGATATACAAAT [CACACA_site6651]”, the “gcPBM binding intensity (ln)” value worked out at 9.27 ± 0.42.

Regarding “AATACTCAAAAGAATCGTACAAACAACACTCCCACG [XGTACX_site7564]”, the “gcPBM binding intensity (ln)” value turned out to be 9.15 ± 0.3.

On to “TATCATACCTTTTAATGTACACACATTTCTTTTTTG [XGTACX_site1655]”, for which the “gcPBM binding intensity (ln)” value turned out to be 9.13 ± 0.56.

As for “TATAACTTTTTTAATACACACAAATATTTATTTATA [CACACA_site7425]”, the “gcPBM binding intensity (ln)” value turned out to be 8.57 ± 0.54.

For “GGCATACACGAACACACACACACACGCACATATATA [CACACA_site6426]”, the “gcPBM binding intensity (ln)” value is 10.5 ± 0.36.

In the case of “TTTTACGTGAGTAATACACACATATAAGTTTATATA [CACACA_site4120]”, the “gcPBM binding intensity (ln)” value worked out at 8.65 ± 0.37.

For “ATATATATATGTGTGTGTACATATGATTTCGCACTT [XGTACX_site4449]”, the “gcPBM binding intensity (ln)” value stood at 9.71 ± 0.2.

Consider “TATACAGATAAATACACACACATATATATATATATA [CACACA_site4178]”, for which the “gcPBM binding intensity (ln)” value was 10.2 ± 0.33.

Consider “GTTATAATTTAGTCAAGTACATGCGTATGTATATTC [XGTACX_site3763]”, for which the “gcPBM binding intensity (ln)” value turned out to be 8.96 ± 0.3.

As for “CACAGAAATATTCTTATACACACTGTTCTTATATTC [CACACA_site288]”, the “gcPBM binding intensity (ln)” value is 8.93 ± 0.45.

Consider “TAATATATATTATATACACACATATATATATATATA [CACACA_site428]”, for which the “gcPBM binding intensity (ln)” value was 9.465 ± 0.092.

Regarding “TACCACTTTCGAAGTAGTACATGGCTTTTTTTTTTT [XGTACX_site8379]”, the “gcPBM binding intensity (ln)” value is 8.74 ± 0.42.

“TGTATGTTAAATACAACACACAAAAAAAAACAAGTT [CACACA_site4324]”: the “gcPBM binding intensity (ln)” value worked out at 9.13 ± 0.5.

On to “ACATATGAATATAATACACACTTGTATTCTTAATAT [CACACA_site5085]”, for which the “gcPBM binding intensity (ln)” value came out at 8.93 ± 0.35.

As for “ATAATTCCATAAAATAGACACACGAATGTATAATAT [CACACA_site477]”, the “gcPBM binding intensity (ln)” value amounted to 9.19 ± 0.42.

In the case of CAGTTGTTAATTTGTGTGCACCAAATATTATACATA, the “gcPBM binding intensity (ln)” value amounted to 8.97 ± 0.37.

For the sequence “TATTTGTAAAGACATGCATGGTACTTTTAAAACATA [TGCATGCA_site7]”, the “gcPBM binding intensity (ln)” value amounted to 8.67 ± 0.44.

As for “TGTAGATAAAATAAACGTACGTATTGATTTTTTTCA [XGTACX_site1610]”, the “gcPBM binding intensity (ln)” value turned out to be 8.68 ± 0.35.

“TGGTAATACCCATACACACACACATACACATATATA [CACACA_site8877]”: the “gcPBM binding intensity (ln)” value was 9.76 ± 0.32.

Consider “TTAATATTTGTTCTGATCCTTTTATTCAACTTTTTT [CACACA_negctrl_site536]”, for which the “gcPBM binding intensity (ln)” value came to 8.64 ± 0.52.

For the sequence “TTTTCTTTCTTGTTTCGTATATTATAAAAAAAAAAG [CACACA_negctrl_site854]”, the “gcPBM binding intensity (ln)” value came to 8.04 ± 0.33.
